These results are taken from the supplement of paper PMC11417369.

Some of the results follow.

In the experiment the test system is PfSIP2 AP2 domain 1 (GST-tagged). The experiment can be described thus: gcPBM binding intensity (ln(normalized median fluorescence intensity)); higher = stronger DNA binding. Summed up: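 For binding intensity, the highest Masliner-normalised natural-log median intensity across replicate spots of either probe orientation was taken. Protein bound to the array was stained with Alexa488 anti-GST antibody and scanned at 488 nm. The protein, GST-tagged P. falciparum DNA-binding domains from E. coli at about 25 μg on average, had been applied for 1 h to an Agilent 4 × 180k array of primer-extended double-stranded 36-bp intergenic genomic probes and negative controls.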
In the case of “TTACCCATTCCCTTTACATGCAATTTGTATTAATAA [TGCATGCA_site412]”, the “gcPBM binding intensity (ln)” value was determined as 7.56.
In the case of “GTACGTTAGATATATACACACATACATAATAAAGAA [CACACA_site7327]”, the “gcPBM binding intensity (ln)” value was 7.22.
“TTAATTCTACTTATTACACACATATTAAGCAAAAAT [CACACA_site4921]”: the “gcPBM binding intensity (ln)” value came out at 7.03.
In the case of “ATATGTTCCGAAGGTTGTACACACATAGAAATATAC [XGTACX_site8227]”, the “gcPBM binding intensity (ln)” value is 7.47.
The figure for “AAAATATATACAATATGTACATATATATATATATAT [XGTACX_site1898]” is 9.23; for “TATATATATATAAAGACACACATCTATAGAATGTTA [CACACA_site2557]” it is 9.12; for “TATTTATATTTATACACACACACAAAAAAAAAAAAA [CACACA_site6817]” it is 7.22.
Turning to “AAAAAAAAAAAAAAAGCACACACACCGATGTGTATA [CACACA_site8224]”, the “gcPBM binding intensity (ln)” value worked out at 7.5.
As for “TATATATATATACCTTGTACTTACATTCGCATATAA [XGTACX_site2466]”, the figure is 8.81.
Turning to “ACATAAATATATGACACACACACATATTATATATAT [CACACA_site3065]”, the “gcPBM binding intensity (ln)” value is 7.74.
Take “CCATTACCATATAAAACACACAAACATACATACATA [CACACA_site5952]”: the “gcPBM binding intensity (ln)” value amounted to 7.23.
The figure for “GTATAATTATGTGCACGTACATATTTTATTATATAT [XGTACX_site8586]” is 9.21; for “TACCAAATTTATTCTTGTACATATATATATATATAT [XGTACX_site4832]” it is 9.
As to “AATATAGAAATAAATATATCACATTTGTGTTTAAAC [XGTACX_negctrl_site68]”, the “gcPBM binding intensity (ln)” value is 6.82.
The figure for “TTTATGACTTGAAAAAGTACACATATATTTATGCAA [XGTACX_site5451]” is 7.29.
Consider “AAAAATAAATATACATGTACATAATAATAATATATA [XGTACX_site8359]”, for which the “gcPBM binding intensity (ln)” value is 6.97.
The figure for “TTTGAAAAAAAATATTGTACACGTGAATAAAGTATT [XGTACX_site644]” is 7.01.
The figure for “TTGCATCTATTTTTGAGTACACAATGAGAATAATTA [XGTACX_site7171]” is 7.34.
The figure for “AAAAAAAAAAGACACACACACACATACACATACATA [CACACA_site7362]” is 7.09; for “TATATATATATATATATATATATATATATAATTTGA [XGTACX_negctrl_site3]” it is 8.92.
Consider “TTATTATATATGTTCACATAAATACATAAATATATA [GTGCAC_negctrl_site529]”, for which the “gcPBM binding intensity (ln)” value stood at 6.94.
As for “TTAAAAAAGTAATTAACACACAATAATGTAATGCAT [CACACA_site4176]”, the figure is 6.72.
“ACCCAAAATATATTCACACAAAAAATATTAAAAATA [CACACA_site5433]”: the “gcPBM binding intensity (ln)” value turned out to be 7.12.
As for “TAATATATATAACAAGTGCAAAAAAATATAGATATT [GTGCAC_site9625]”, the figure is 7.98; as for “AATAAACAAATAAATAAATAAACAGATAAATAAATC [CACACA_negctrl_site920]”, 6.78.
As for “AAGCATCCTACTGATTGTACATATATATATATATAT [XGTACX_site2150]”, the figure is 9.38.
As for “GAGAACATTGATACACGTACATAAGTTATAAGTATT [XGTACX_site7665]”, the figure is 6.88; as for “TTAGGTTATAAATACACACACAAAAGAAAAAAAAAA [CACACA_site5625]”, 6.9.
In the case of “TATTTAAATTAATATTGTACATATATTTATAATATA [XGTACX_site6109]”, the “gcPBM binding intensity (ln)” value was determined as 6.82.
For “TTTATTTATATAATTACACACATATATACACAAATG [CACACA_site8903]”, the “gcPBM binding intensity (ln)” value amounted to 7.21.
As to “AAATATATTATATATGCATGCGCCAAGATTTATATA [TGCATGCA_site770]”, the “gcPBM binding intensity (ln)” value came to 6.98.
As to “TATATATATTCTTTGTGTACTCATATAAGGGTAGAA [XGTACX_site8121]”, the “gcPBM binding intensity (ln)” value was 7.47.
As to “TTTTTAGAAAAGGTTATAAAAAATTAATTGAAAAAA [GTGCAC_negctrl_site289]”, the “gcPBM binding intensity (ln)” value was 6.78.
The figure for “AATCAATATTATATATGTACTTATTTTCACTTTTGC [XGTACX_site1775]” is 6.91; for “TTGTCATTATTATATTGTACAATAAGTATTAAAGAA [XGTACX_site1205]” it is 7.21.
Regarding “AACTGATATTAATTCTGTACCTATACGTTATATGTT [XGTACX_site1003]”, the “gcPBM binding intensity (ln)” value was found to be 6.95.
As for “TATGAACATATATATTGTACAAAATTATAATTTCAA [XGTACX_site6406]”, the “gcPBM binding intensity (ln)” value turned out to be 6.99.
As for “AAGCGAATCTATATCACACACAAAAAAATCAGACTA [CACACA_site7072]”, the figure is 6.94; as for “AGTTCAGAATTGAATAGTACATAAATATAACAAAAT [XGTACX_site650]”, 7.46.
Consider “ATATATTATATTATATGTACTTAAAAAAGTGCAAAG [XGTACX_site318]”, for which the “gcPBM binding intensity (ln)” value came to 8.67.
As for “TATATTCAATTTTTGGTGCGTAAATTAATACAAACA [GTGCAC_site9764]”, the figure is 8.85; as for “ATGCACGGAAAAATATGTACTTAATTTCAATAATAT [XGTACX_site8311]”, 7.32; as for “CGGACATACTAACGGACACACGTAAGAAAAAAAAAG [CACACA_site4504]”, 6.95.
Consider “TTTTTTCAATAAATAATCGTATATTGAATAATAATA [CACACA_negctrl_site822]”, for which the “gcPBM binding intensity (ln)” value is 6.66.
As for “AGAGAGAACGGTATAACATGCGATAAATTTTAGAAG [TGCATGCA_site357]”, the figure is 6.92; as for “TATATGTCCATATTTCCACACACATATTATTTTTAT [CACACA_site9266]”, 6.98; as for “TATTAATTTTTCCTTTTTTTTTTACCCCTTTGTACA [CACACA_negctrl_site947]”, 6.91.
As for “ATTTTAATTTTGTATACACACATTTGAATTATTAAT [CACACA_site3528]”, the figure is 6.89; as for “AAATAATACATTCGTACTACACATATATATTAAATA [XGTACX_site7806]”, 7.09.
The figure for “AATATATACATATATACACACACATATATATATATA [CACACA_site8907]” is 9.22; for “TAAAATGTTATAAGAACATGCAATTCCTTTTATTAT [TGCATGCA_site408]” it is 6.82.
Turning to “ATAATATGAGTCCCACAAAATAGACCATACGAATAT [CACACA_negctrl_site50]”, the “gcPBM binding intensity (ln)” value is 6.92.
Take TATAAATTTATACCAGTGCATTTTGAAATATATATA: the “gcPBM binding intensity (ln)” value is 9.08.
As for “TGGAACCATAAAAAGTGTACACATATAAAAAATATG [XGTACX_site96]”, the figure is 7.13; as for “TATATATTTTATATATGTACATATTTATATGTTTCT [XGTACX_site1818]”, 6.85.
As to “AAAAAAAAGTTATATACACACATATAAATATAAATA [CACACA_site6683]”, the “gcPBM binding intensity (ln)” value was 6.88.
As for “TTTTTTTTTTTTTGAACACACATTATTAACTTTTAT [CACACA_site6281]”, the figure is 7.01; as for “CGCGAACATACATACACACACATATATATATATGTA [CACACA_site205]”, 7.13.
The figure for “AAAAATATTAAAAGGCGTACAATACCTGTATGCAAC [XGTACX_site6069]” is 7.17.
The figure for “CATGTAAAATATTAAAGTACATGATTATATATATAT [XGTACX_site7486]” is 8.79.
For the sequence “TATATTTATATAATATGTACATATTTTTTAATATTT [XGTACX_site3834]”, the “gcPBM binding intensity (ln)” value was found to be 6.95.
The figure for “TATTTTATTTTCCGAAGTACAAAAGCAAAAAAAAAC [XGTACX_site103]” is 7.44.
As for “AGCTAAAATATTTTTGCACACGATTTTTTTTTTTTT [CACACA_site1140]”, the figure is 7.18; as for “TTCAATGCTAATTTATGTACATATGTATATAAAATA [XGTACX_site8335]”, 7.03; as for “CCCAAAAAAAATTTATGTACTTATTAAATATATATA [XGTACX_site6455]”, 7.28.
The figure for TTTATATAAATTTAAGTGCAAAATGAACAAGTGAAA is 7.88; for “AAAATATATATTTGTTGTACAATATTAATTATTAAA [XGTACX_site1612]” it is 7.13; for “TGCAAAGGTGAAAGAACACACAAAAAAAAAAAAAAA [CACACA_site4024]” it is 6.91.
As for “TTTTTAATCTCATATGTATAATATATTTTTATTAAA [XGTACX_negctrl_site236]”, the “gcPBM binding intensity (ln)” value was 6.86.
As for “AATTTTAGATTTAGCACACATTTTTTTTTTTTTTTT [CACACA_site6105]”, the figure is 7.58.
On to “TTCAAAGGGAAATTAACACACACATATATATATATA [CACACA_site8777]”, for which the “gcPBM binding intensity (ln)” value came out at 9.41.
As for “AAAAAAAAAAAAAGAACATGCGACTTTAAGAACTGG [TGCATGCA_site792]”, the figure is 6.93; as for “TATGAAAATAAAATATGTACATATTTTAAATGTTAT [XGTACX_site7352]”, 7.22; as for “CAAATGTGTTCTTCAGGTACAGATACACATTTATGA [XGTACX_site2664]”, 6.82.
The figure for “TAAAAAATTATATATTGTACGAATGCATAAAAAAAA [XGTACX_site4606]” is 7.37.
As for “CACCATGTTAACAAAGCATGCATCTCTATAGTTTTA [TGCATGCA_site97]”, the figure is 7.08; as for “TTTATTCATTTCTAAAAATATTAAAATAGAATGAAT [CACACA_negctrl_site325]”, 6.66.
Regarding “AAACAAAAAATATATACACACTAAACATAAAAAAAA [CACACA_site4185]”, the “gcPBM binding intensity (ln)” value is 6.86.
As for “TAAAAAAAAATAAATGGTACACAATTAAATGTTTAT [XGTACX_site5255]”, the figure is 6.9.
With “ATAAGAAAATCAAAAAGTACTTTTTACAAAGATAAA [XGTACX_site824]”, the “gcPBM binding intensity (ln)” value was 6.79.
As to “ATATACTATATATAATGTACATATATATTATTATGC [XGTACX_site2957]”, the “gcPBM binding intensity (ln)” value was found to be 7.09.
For the sequence “TAGTTTTTTATATATTGTACAAATAATATATTATAT [XGTACX_site2564]”, the “gcPBM binding intensity (ln)” value amounted to 7.13.
The figure for “ATTTTATGATATATTTGTACTTAACATTTGGATATA [XGTACX_site5888]” is 7.04; for “TCTTTTTTTAATAAAACATGCAATATTATATATGTA [TGCATGCA_site236]” it is 7.
The figure for “TAAATTCTTTAAAACTTTAAAACAAAAAAAAAAAAA [CACACA_negctrl_site1078]” is 6.8; for “GTAATTATTAATAAAACATGCGTATAAAATTTTCTC [TGCATGCA_site50]” it is 7.02.
The figure for “AAAAAAATATATATATATATATATATATATTTATAT [XGTACX_negctrl_site86]” is 7.59; for “TTTGCGTAGAAATGTGTGCACTGATATTTATAATAA [GTGCAC_site9526]” it is 9.99; for “TGAACTCATAGGAAAACACACATATGGGTAATATAT [CACACA_site187]” it is 6.98.
